In publication PMC10668032:
Some of the results follow. At the low end of the ranking the order means little.

Biological target: SIX1 homeodomain (reference allele) (UniProt Q15475)
Test: universal protein binding microarray
Settings: Universal all-10-mer PBM (8x60K, AMADID 030236), 300 nM GST-tagged protein, Alexa Fluor 488 anti-GST; buffer, salt, pH and temperature not stated; high values mean tight binding; most listed sequences are background and not binding sites; double strand, one strand shown

Sequence | binding signal
ACGAACTG | -0.18 E-score
GCAGCAAC | -0.0465 E-score
CGACAGTC | -0.288 E-score
CGCGCGTC | -0.111 E-score
CAACTCAA | -0.139 E-score
CGACTCAC | -0.0464 E-score
AACCGCCC | -0.0199 E-score
CACGGTCC | -0.231 E-score
CAGCATGG | 0.0221 E-score
ACTGGGAT | 0.239 E-score
AGTTCCGG | 0.00713 E-score
CACCACTG | 0.0781 E-score
ACCTCGTG | 0.0662 E-score
AAAAGGGC | -0.101 E-score
ACCAGGCT | 0.0157 E-score
GGGGGAAC | -0.115 E-score
ATAGTGGC | 0.0268 E-score
AGAAGCGA | -0.0723 E-score
CAGACCAA | -0.0504 E-score
TCCGGAGA | -0.0926 E-score
AACGTCTC | 0.0395 E-score
AGGCCCGG | -0.179 E-score
ATTGGCGC | -0.131 E-score
CGGGATGC | -0.128 E-score
ACGAAATC | -0.103 E-score

Sequence | binding signal
AGGTGCCC | -0.247 E-score
AGCAACGG | -0.137 E-score
AATTAATC | 0.0627 E-score
ACGAGGAC | -0.0246 E-score
AGAAAACG | -0.106 E-score
ATCCATCA | 0.286 E-score
GCTCCTGA | -0.0918 E-score
GCGGGAAA | -0.188 E-score
CGAACCAG | -0.0856 E-score
GCCAACAA | -0.291 E-score
GCCACTCA | -0.0675 E-score
AAAAGAAT | 0.0426 E-score
CGTCCCTC | -0.125 E-score
ACTCACTC | -0.0976 E-score
GACTCTGA | 0.0739 E-score
AATGTGAT | 0.178 E-score
ACGGCCAA | -0.104 E-score
CAAGGGAC | -0.303 E-score
CCAAGGAC | -0.114 E-score
GCCATTCA | -0.0478 E-score
AATGATGT | -0.29 E-score
ATGCGTCA | 0.0713 E-score
CGTGTAAG | 0.0716 E-score
CTGGGCGA | 0.0462 E-score
CGCACTAA | -0.168 E-score

Sequence | binding signal
CCGTTAGG | -0.0266 E-score
ACCCGACG | -0.12 E-score
ACCCCCCG | 0.168 E-score
ACCACAGC | -0.198 E-score
ACCGCGCA | -0.0459 E-score
ACACAAAA | -0.00483 E-score
TAATACTA | 0.276 E-score
ATTTGTCA | -0.031 E-score
ACAAACAA | -0.24 E-score
AGGGACAG | -0.133 E-score
ACTAGGTG | -0.0363 E-score
GGGGAATA | 0.0727 E-score
CTTCGGTC | -0.0715 E-score
GCTGTCTA | -0.134 E-score
CTGTACAG | -0.179 E-score
ACGAACCA | -0.0843 E-score
ATCTTAAT | 0.0937 E-score
AGACTAAA | -0.108 E-score
CCGAGAAG | 0.0888 E-score
ACAATTAA | -0.0308 E-score
CATTGGGC | -0.211 E-score
GTAGCATA | 0.00125 E-score
AGCACGCT | -0.189 E-score
GAACACCC | 0.205 E-score
ATGTGAGA | 0.165 E-score

Sequence | binding signal
GATCTTAA | 0.111 E-score
GATCAGCA | 0.235 E-score
GAGTGTTA | -0.0963 E-score
CTAGGCGC | -0.106 E-score
GTGTGGGA | 0.0691 E-score
AGGTTGTA | -0.0498 E-score
CTCAAATA | -0.0396 E-score
AGGTACGC | -0.093 E-score
CTCTCACC | 0.0859 E-score
AACGCGTG | -0.19 E-score
CTACACCC | 0.263 E-score
GACCCTAA | -0.0378 E-score
ATACCTTA | 0.385 E-score
AAGTGCGG | -0.116 E-score
AGTGAGAT | 0.306 E-score
CCCGCCCC | 0.188 E-score
AACTCGAC | -0.0294 E-score
AGGACCCA | -0.105 E-score
AGCTTTTA | -0.266 E-score
ACTCGCGC | -0.0626 E-score
AAAGGGTG | 0.0999 E-score
ACGACCGG | -0.0701 E-score
CGAGTCCC | -0.168 E-score
TGGGTTAA | 0.000645 E-score
CGCTATTC | 0.0301 E-score

Sequence | binding signal
GCGCACCC | -0.102 E-score
ACCCGTAA | 0.117 E-score
TGGCTTAA | -0.139 E-score
CCGTAACA | -0.18 E-score
CCCTGCTA | 0.0184 E-score
AAGAAAGA | -0.0922 E-score
ACCAGATC | 0.349 E-score
ACTATCGA | 0.263 E-score
CGAGCTCA | -0.0261 E-score
CTGGGCTC | -0.17 E-score
GAAGTGAC | -0.22 E-score
GCCGACCC | -0.131 E-score
ATATGAAG | 0.0142 E-score
CTATGCAA | -0.159 E-score
CGACACAG | -0.0271 E-score
TAAGAGGA | 0.0461 E-score
GGTCGGTA | 0.0287 E-score
GCAGCGGC | -0.302 E-score
CGTAAGAC | -0.0929 E-score
ACTCACCG | -0.128 E-score
GTGTGAAA | -0.0509 E-score
GAATCGAC | -0.06 E-score
GAAGTCAA | -0.225 E-score
AAATTGTT | -0.186 E-score
AGTACCGC | -0.199 E-score

Sequence | binding signal
AATGTTCT | -0.221 E-score
AGTTGAAT | -0.255 E-score
CTTGAAAC | -0.0949 E-score
CTGGTAGA | 0.0218 E-score
GCCTTCGC | -0.159 E-score
GTTAATCA | -0.0969 E-score
GGCGTATA | 0.179 E-score
ACGTATTA | 0.306 E-score
CATGAATC | -0.0505 E-score
AGATCGGA | 0.255 E-score
CCACATAC | 0.0202 E-score
ATTAGCGG | 0.00822 E-score
AGGAGCAG | -0.252 E-score
ACTAGACC | 0.116 E-score
CGTTCTCC | -0.135 E-score
ACTGATCT | 0.34 E-score
AGTTGGCC | -0.306 E-score
TATGCAGA | 0.135 E-score
AAACAGAG | -0.257 E-score
AGTTAGAC | 0.017 E-score
ACCAGGCC | -0.00415 E-score
GGGAGTCA | -0.079 E-score
GCCCAGGA | 0.088 E-score
ACCTAAAA | -0.165 E-score
CCAGTATA | 0.133 E-score

Sequence | binding signal
CTGAGCAC | -0.0551 E-score
AAGTTCAA | -0.108 E-score
ATTGGTAA | -0.149 E-score
CACTACAG | 0.0478 E-score
AGCACTGA | -0.22 E-score
AGTACTCC | -0.109 E-score
TCACAGAA | 0.0147 E-score
AGATTATA | 0.186 E-score
AAGGTGTA | 0.134 E-score
GTTTGGGA | -0.0271 E-score
CAGCCAAC | -0.143 E-score
CCGCGAAA | 0.00208 E-score
AAGCGACT | -0.177 E-score
ATGGCCTG | -0.105 E-score
GCGAAGCC | -0.222 E-score
ATTGACTA | 0.0925 E-score
AGCGCCAG | -0.0548 E-score
ATAGGGTA | 0.295 E-score
CAGAGGCG | -0.188 E-score
CGAAGTAC | 0.0261 E-score
AACCTCTA | -0.0947 E-score
ATCTAAAA | 0.00047 E-score
